Measurements reported in PubChem BioAssay AID624173 (National Center for Advancing Translational Sciences (NCATS), 2012).
Out of some 410,000 compounds screened, about 490 (0.12%) were called active. The inconclusive results got no clear call from the source; some entries with a clear call stand among them for comparison. The call rests on the fitted dose curve; in most records, active means well fitted inhibition curve with a large enough effect; inconclusive means small, poorly fitted or top-dose-only effect; inactive means flat fitted curve, though single readings scatter. Where the call is inconclusive, the potency comes from a doubtful curve fit.

target: pyruvate kinase (Trypanosoma brucei) (UniProt Q57TT1); assay: qHTS of Trypanosoma Brucei Inhibitors; settings: TbPYK enzyme, Kinase-Glo Plus ATP luminescence, 45 min; series mostly up to 76.8 µM; activity, negative = inhibition: at the top concentration; further: nearly all actives have a fitted effect of over 50% in size
Outline: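 In this concentration-response screen, enzyme-free wells defined baseline while DMSO plates tracked drift. Each reaction combined TbPYK, substrate, compound and 130 uM ADP for 45 min at room temperature. Kinase-Glo Plus luminescence gave the signal.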
On the % scale 0 is the no-effect control and ±100 the full control effect; potency means the concentration at half of the fitted maximal effect; tags describe the fitted curve by direction and shape.

Compound	Potency	activity, negative = inhibition
CCOc1ccc(NC(=O)c2sc3nc(N4CCOCC4)c4c(c3c2N)CC(C)(C)OC4)cc1	inconclusive: 7.94 µM [inhibitor, full curve]	–
O=C(CSc1cc([N+](=O)[O-])cc(S(=O)(=O)Cc2ccccc2)c1)NC1CC1	inconclusive: 39.8 µM [inhibitor, partial curve, poor fit]	–
Cc1ccc(C)n1-c1nc(=S)[nH][nH]1	inconclusive: 25.1 µM [inhibitor, partial curve]	–
COc1ccccc1/C=C/C=N/NC(=O)Cc1cccn1C	–	inactive: -10.7%
Cc1cccc(CSc2nnc(CCCCCN)o2)c1	–	inactive: 0.372%
COc1cc(CNc2ccc(N3CCCC3)cc2)cc(Cl)c1OC	inconclusive: 20 µM [inhibitor, partial curve]	–
Cc1ccc(C(=O)NC(=S)N2CCN(C)CC2)cc1Br	inconclusive: 31.6 µM [inhibitor, single point]	–
O=c1[nH][nH]c(=O)c2c1[nH]c(=S)n2Cc1ccccc1	inconclusive: 22.4 µM [inhibitor, partial curve]	–
Cc1cc(C)c(C#N)c(SCC(=O)N2CCCCC2)n1	inconclusive: 20 µM [inhibitor, partial curve]	–
CC(C)CN(C(=O)CN1CCN(c2ccc(O)cc2)CC1)c1c(N)n(CC(C)C)c(=O)[nH]c1=O	inconclusive: 31.6 µM [inhibitor, partial curve, poor fit]	–
CCOCCCNC(=O)c1ccc2c(=O)n(CCc3ccc(OC)c(OC)c3)c(=O)[nH]c2c1	–	inactive: 1.4%
Cc1ccc(/C=N/n2c(-c3cccnc3)n[nH]c2=S)s1	inconclusive: 5.62 µM [inhibitor, partial curve]	–
Cc1ccc(OCC(=O)c2cc(C)n(C)c2C)c([N+](=O)[O-])n1	–	inactive: -6.45%
[2H]c1c([2H])c([2H])c2c([nH]c(=S)n2C2CCN(CCCC(=O)c3ccc(F)cc3)CC2)c1[2H]	inconclusive: 25.1 µM [inhibitor, partial curve, poor fit]	–
O=C(Nc1ccc(-c2n[nH]c(=S)o2)cc1)c1ccccc1Br	inconclusive: 12.6 µM [inhibitor, partial curve, poor fit]	–
CCC1CCCCN1S(=O)(=O)c1cc2c(cc1C)NC(=O)CO2 (stereo not given)	–	inactive: -15.4%
Oc1ccc(-c2n[nH]c(=S)n2-c2ccc3c(c2)OCCO3)cc1	active: 4.47 µM	–
Cn1cccc1/C=N/n1c(-c2ccco2)n[nH]c1=S	inconclusive: 14.1 µM [inhibitor, partial curve]	–
S=c1[nH]nc(COc2ccccc2)n1Cc1ccccc1	inconclusive: 7.94 µM [inhibitor, partial curve]	–
COc1ccccc1/C=C1\C(=O)NC(=S)N(c2ccccc2)C1=O	inconclusive: 15.8 µM [inhibitor, partial curve]	–
CCOC(=O)c1cnc2oc3ccccc3n2c1=O	–	inactive: -2.07%
O=C(O)c1cc(N=Nc2c(O)ccc3ccccc23)cc(C(=O)O)c1	active: 12.6 µM	–
Cc1nn(-c2ccccc2)c(C)c1/C=N/n1c(-c2ccncc2)n[nH]c1=S	inconclusive: 2.82 µM [inhibitor, full curve, poor fit]	–
Fc1ccc(/C=N/n2cnn(Cc3ccccc3Cl)c2=S)cc1	inconclusive: 31.6 µM [inhibitor, partial curve, poor fit]	–

Compound	Potency	activity, negative = inhibition
Cn1c2ccccc2c2ccc3c(c21)C(=O)C=CC3=O	active: 22.4 µM	–
CCc1ccc(N2CSC3=C(C#N)C(c4cccs4)CC(=O)N3C2)cc1 (stereo not given)	inconclusive: 12.6 µM [inhibitor, partial curve, poor fit]	–
N#Cc1c(SCC(N)=O)nc2c(c1-c1ccncc1)CCCC2	inconclusive: 15.8 µM [inhibitor, partial curve, poor fit]	–
Cc1ccc(CNC(=O)c2sc3nc4n(c(=O)c3c2C)CCCCC4)cc1	inconclusive: 35.5 µM [inhibitor, single point]	–
CC(=O)N(C1=C(Cl)C(=O)c2ccccc2C1=O)c1ccc(C(=O)O)cc1	inconclusive: 2 µM [inhibitor, full curve, poor fit]	–
CCOC(=O)N1CCc2c(sc(NCc3cccs3)c2C(=O)Nc2ccc(OC)cc2OC)C1	inconclusive: 7.08 µM [inhibitor, full curve]	–
O=c1c2ccccc2cnn1Cc1n[nH]c(=S)n1-c1ccc(F)cc1	inconclusive: 17.8 µM [inhibitor, partial curve, poor fit]	–
Cc1ccc(N=c2ssnc2Cl)cc1	active: 28.2 µM	–
CC(C)Cc1c2c([nH]c(=S)c1C#N)CCCC2	inconclusive: 8.91 µM [inhibitor, partial curve]	–
S=c1[nH]nc(-c2ccncc2)n1/N=C/c1cccc(Cl)c1	inconclusive: 2.82 µM [inhibitor, full curve]	–
COc1cc(N2CCCC2)c(OC)cc1/C=C(/C#N)c1ccc(F)cc1	inconclusive: 1.41 µM [inhibitor, full curve]	–
N#CCSc1nc(-c2ccccc2)cs1	–	inactive: -0.451%
Cc1ccc(C)c(C2=NNC(=NCc3ccccc3)SC2)c1	inconclusive: 15.8 µM [inhibitor, partial curve, poor fit]	–
O=C(NCc1n[nH]c(=S)n1-c1ccc(Cl)c(Cl)c1)c1ccc(S(=O)(=O)N2CCOCC2)cc1	inconclusive: 15.8 µM [inhibitor, partial curve, poor fit]	–
CC1(C)Cc2c(C#N)c(N)sc(=S)c2CS1	inconclusive: 8.91 µM [inhibitor, partial curve]	–
O=C(Nc1ccccc1C(=O)N/N=C/c1ccco1)c1ccc(F)cc1	–	inactive: -1.18%
CCCCOC(=O)C1=C(C)NC(=O)NC1c1ccc([N+](=O)[O-])s1 (stereo not given)	inconclusive: 50.1 µM [inhibitor, single point]	–
CC(C)(C)C(=O)NCC12C=CC(O1)C1C(=O)N(c3ccccc3)C(=O)C12 (stereo not given)	inconclusive: 35.5 µM [inhibitor, single point]	–
Cc1ccc2nc(NC(=O)CSc3nccn3Cc3ccc(F)cc3)sc2c1	–	inactive: 0.0807%
CCCOc1ccc(CSc2ncn[nH]2)cc1	inconclusive: 31.6 µM [inhibitor, single point]	–
Cc1nn(C)c2c1c(-c1ccccc1)cc(=O)n2CC(=O)NC(C)C	–	inactive: -1.44%
CCOC(=O)C1CCN(CC(=O)c2c(C)[nH]c3ccccc23)CC1	inconclusive: 39.8 µM [inhibitor, partial curve, poor fit]	–
CCn1c(-c2cccc(Br)c2)n[nH]c1=S	inconclusive: 11.2 µM [inhibitor, partial curve]	–
CCCCCN1C=CC(=C2C(=O)c3ccccc3C2=O)C=C1	inconclusive: 35.5 µM [inhibitor, partial curve, poor fit]	–

Compound	Potency	activity, negative = inhibition
Cc1cccc(NC(=O)c2oc3ccccc3c2NC(=O)Cc2coc3ccc(C(C)C)cc23)c1	inconclusive: 2 µM [inhibitor, full curve, poor fit]	–
S=c1[nH]nc(-c2ccco2)n1/N=C/c1c(Cl)cccc1Cl	inconclusive: 2.24 µM [inhibitor, full curve]	–
Cc1nc(C(=O)NNC(=O)c2cccc(Cl)c2)c(C(F)(F)F)o1	–	inactive: 0.308%
Cc1cc(N2C(=O)C(=O)/C(=C(/O)c3ccc(F)cc3)C2c2cccc(Br)c2)no1 (stereo not given)	–	inactive: 1.24%
CCn1c(SCC(=O)Nc2ccc3c(c2)c2ccccc2n3CC)nnc1-c1ccco1	inconclusive: 31.6 µM [inhibitor, single point]	–
Cn1c(/C=C/c2cccc([N+](=O)[O-])c2)nc2ccccc2c1=O	–	inactive: 6.64%
Oc1ccc(N2CCN(c3nc(-c4cccs4)nc4ccccc34)CC2)cc1	inconclusive: 20 µM [inhibitor, partial curve]	–
O=C(COC(=O)c1ccc(F)c([N+](=O)[O-])c1)NC(=O)NCc1ccccc1	–	inactive: 0.424%
CCn1c(-c2ccoc2C)n[nH]c1=S	inconclusive: 25.1 µM [inhibitor, partial curve]	–
O=C(NCc1nc2ccccc2[nH]1)C1CCCCC1	–	inactive: 6.67%
Cn1c(-c2ccccc2)cc2ccccc21	–	inactive: -1%
Cc1cccc(-n2cc[nH]c2=S)c1C	inconclusive: 31.6 µM [inhibitor, partial curve, poor fit]	–
O=C(Sc1n[nH]c(=O)[nH]c1=O)c1ccccc1	inconclusive: 10 µM [inhibitor, partial curve]	–
CCS(=O)(=O)N1CCN(S(=O)(=O)c2ccc(Cl)s2)CC1	–	inactive: 2.22%
Cc1[nH][nH]c(=O)c1C(c1ccc(-c2cccc(Cl)c2)o1)c1c(C)[nH][nH]c1=O	inconclusive: 28.2 µM [inhibitor, partial curve, poor fit]	–
Cc1ccsc1C(=O)Nc1nc2ccccc2[nH]1	inconclusive: 31.6 µM [inhibitor, single point]	–
Cc1cccc(NC(=O)c2sc3nc(-c4cc5ccc(O)cc5oc4=O)[nH]c(=O)c3c2C)c1	inconclusive: 11.2 µM [inhibitor, partial curve]	–
CC(=O)N1CCC(N(CCN2CCOCC2)C(=S)Nc2ccc(C)cc2C)CC1	–	inactive: 2.04%
CC1=CC2/C=C(\C)CCC(O)C(O)/C=C/C(=O)C23C(=O)NC(CC(C)C)C3C1C (stereo not given)	inconclusive: 22.4 µM [inhibitor, partial curve, poor fit]	–
CC1CCN(S(=O)(=O)c2ccc3c(c2)c(=O)c(C(=O)N2CCN(c4cccc(Cl)c4)CC2)cn3C)CC1	–	inactive: -2.67%
CCCCN(CCO)c1ncnc2sc(-c3ccccc3)cc12	–	inactive: 2.96%
CCOc1ccc2cc(S(=O)(=O)n3ccnc3C)ccc2c1	inconclusive: 10 µM [inhibitor, partial curve, poor fit]	–
